Data: a collection of fitness landscapes (doi:10.1016/j.celrep.2020.107928)
In all, about 81,000 sequences were measured (“one-hybrid fitness for binding NBS DNA”: median about -0.1, highest 2% from about 0.36 on). Some of the results follow.

B1: Caulobacter ParB omega fusion; a variant is named by its letters at X, in order, B8GW30 (parent)
chain: MESVVVGEPGMSEGRRGLGRGLSALLGEVDAAPAQAPGEQLGGSREAPIEILQRNPDQPRRTFREEDLEDLSNSIREKGVLQPILVRPSPDTAGEYQIVAGERAWRAAQRAGLKTVPIMVRELDDLAVLEIGIIENVQRADLNVLEEALSYKVLMEKFERTQENIAQTIGKSXSHVANXMRLLXLPDEVQSYLVSGELTAXHARAIAAAADPVALAKQIIEGGLSVRETEALARKAPNLSAGKSKGGRPPRVKDTDTQALESDLSSVLGLDVSIDHRGSTGTLTITYATLEQLDDLCNRLTRGI

Variants of: B1
Test: one-hybrid fitness for binding NBS DNA (the Noc-binding site; scaled: cognate 1, non-cognate 0); higher = stronger binding
Conditions: with NBS DNA site
How it was run: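 Fitness is the rescaled log change in variant-to-wild-type read ratio, measured by Illumina sequencing of plasmids before and after bacterial one-hybrid selection. The scale puts cognate at 1 and non-cognate at 0. Selection of Caulobacter ParB libraries, four specificity codons randomised, took place in E. coli USO with a HIS3 reporter, site 19 bp from the promoter, over 48 hours at 37°C on M9-minus-histidine with 0.1 mM IPTG and 5 mM 3-AT.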

Row | Variant | one-hybrid fitness for binding NBS DNA
1 | RMPD | ≤ 0.2
2 | QNEG | ≤ 0.2
3 | SELR | ≤ 0.2
4 | LRFR | ≤ 0.2
5 | SNYR | ≤ 0.2
6 | DSSE | ≤ 0.2
7 | GPNG | ≤ 0.2
8 | QIKS | 0.497
9 | ENLL | ≤ 0.2
10 | PNLV | ≤ 0.2
11 | QGAN | ≤ 0.2
12 | CCAI | ≤ 0.2
13 | CVMR | ≤ 0.2
14 | YASE | ≤ 0.2
15 | YSAS | ≤ 0.2
16 | VHKC | ≤ 0.2
17 | KLHW | ≤ 0.2
18 | IGFV | ≤ 0.2
19 | HPKY | ≤ 0.2
20 | PYPN | ≤ 0.2
21 | HKNL | ≤ 0.2
22 | QLQL | ≤ 0.2
23 | LAYL | ≤ 0.2
24 | LVSC | ≤ 0.2
25 | QTCL | ≤ 0.2

Row | Variant | one-hybrid fitness for binding NBS DNA
26 | KRCK | ≤ 0.2
27 | CTIS | ≤ 0.2
28 | SLCY | ≤ 0.2
29 | DTHD | ≤ 0.2
30 | RDQR | ≤ 0.2
31 | ACCS | ≤ 0.2
32 | SVFR | ≤ 0.2
33 | LWAD | ≤ 0.2
34 | VIGG | ≤ 0.2
35 | CGYG | ≤ 0.2
36 | TRRF | ≤ 0.2
37 | RCCC | ≤ 0.2
38 | WRLR | ≤ 0.2
39 | LEMR | ≤ 0.2
40 | RGMM | ≤ 0.2
41 | WITA | ≤ 0.2
42 | CEDR | ≤ 0.2
43 | LRGC | ≤ 0.2
44 | NEPL | ≤ 0.2
45 | RNME | ≤ 0.2
46 | HTTY | ≤ 0.2
47 | PMCW | ≤ 0.2
48 | LCRA | ≤ 0.2
49 | NGTT | ≤ 0.2
50 | IYEY | ≤ 0.2

Row | Variant | one-hybrid fitness for binding NBS DNA
51 | QPNL | ≤ 0.2
52 | IRCR | 0.301
53 | PMVR | ≤ 0.2
54 | QSRQ | 0.413
55 | VFDS | ≤ 0.2
56 | IVVD | ≤ 0.2
57 | SYCG | ≤ 0.2
58 | SHTQ | ≤ 0.2
59 | VAHG | ≤ 0.2
60 | RANL | ≤ 0.2
61 | GMGT | ≤ 0.2
62 | NQVR | ≤ 0.2
63 | RLIR | 0.21
64 | EKSR | ≤ 0.2
65 | HKHC | ≤ 0.2
66 | QLDM | ≤ 0.2
67 | RMNY | ≤ 0.2
68 | SCPY | ≤ 0.2
69 | PDRQ | ≤ 0.2
70 | PRYL | ≤ 0.2
71 | QDSV | ≤ 0.2
72 | QWPY | ≤ 0.2
73 | EQAG | ≤ 0.2
74 | SPGT | ≤ 0.2
75 | PAHY | ≤ 0.2

Row | Variant | one-hybrid fitness for binding NBS DNA
76 | MVHI | ≤ 0.2
77 | LLAV | ≤ 0.2
78 | RVRD | ≤ 0.2
79 | SREG | ≤ 0.2
80 | RNAV | ≤ 0.2
81 | QTDR | 0.483
82 | HNLG | ≤ 0.2
83 | QLWP | ≤ 0.2
84 | TECG | ≤ 0.2
85 | RFKT | 0.512
86 | HAEA | ≤ 0.2
87 | MCYS | ≤ 0.2
88 | QTWS | 0.444
89 | PDEC | ≤ 0.2
90 | RTQY | ≤ 0.2
91 | HGKG | ≤ 0.2
92 | DVNR | ≤ 0.2
93 | LWNN | ≤ 0.2
94 | GPAM | ≤ 0.2
95 | HAAR | ≤ 0.2
96 | KFSS | ≤ 0.2
97 | FKLT | ≤ 0.2
